The whole screen tested about 200,000 compounds, of which about 4,500 (2.2%) were called active. The inconclusive results got no clear call from the source; some entries with a clear call stand among them for comparison. Calls follow the shape of the dose curve; as a rule, active = well fitted inhibition curve with a large enough effect; inconclusive = small, poorly fitted or top-dose-only effect, or effect the other way; inactive = flat fitted curve, though single readings scatter. Where the call is inconclusive, the potency comes from a doubtful curve fit.
Biological target: Cruzipain (Trypanosoma cruzi) (UniProt P25779)
Experiment: qHTS Assay for Promiscuous and Specific Inhibitors of Cruzain (without detergent); also: nearly all actives have a fitted effect of over 40% in size;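 as to max response, negative = inhibition: plate controls were enzyme without inhibitor for no effect and buffer without enzyme for full effect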
Conditions: purified cruzain, Z-FR-AMC fluorescence, no detergent
Summary of the method: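 Detergent-free condition (0.00005% Triton X-100) in acetate buffer pH 5.5 with DTT. 1.5 nM enzyme and compound were pre-mixed 15 min, then 2 uM Z-FR-AMC substrate added; reaction progress from fluorescence change between first and third reads (60 s).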
Potency is read from the fitted curve at half-maximal effect; tags tell the direction and shape of the fitted curve.

Chain of UniProt P25779 (P25779 whole entry, looked up): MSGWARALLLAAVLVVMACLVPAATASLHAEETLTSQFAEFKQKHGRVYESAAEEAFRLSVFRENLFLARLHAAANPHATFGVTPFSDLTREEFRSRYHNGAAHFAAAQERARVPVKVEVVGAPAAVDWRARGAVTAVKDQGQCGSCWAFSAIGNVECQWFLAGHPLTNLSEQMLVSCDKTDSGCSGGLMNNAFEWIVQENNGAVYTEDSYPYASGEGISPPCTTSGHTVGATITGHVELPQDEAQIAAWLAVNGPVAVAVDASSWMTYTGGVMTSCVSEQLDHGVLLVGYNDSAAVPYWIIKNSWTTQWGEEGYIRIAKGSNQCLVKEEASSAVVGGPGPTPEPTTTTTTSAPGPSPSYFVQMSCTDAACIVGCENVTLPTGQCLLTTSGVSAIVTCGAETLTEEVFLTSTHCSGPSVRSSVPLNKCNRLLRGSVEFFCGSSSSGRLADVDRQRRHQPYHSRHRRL

Compound | Potency | max response, negative = inhibition
Cc1cccc(NCc2nc3ccccc3n2C)c1 | inconclusive: 6.31 µM [inhibitor, single point] | 
Cc1ccc(S(=O)(=O)C(CNS(=O)(=O)c2cc(F)ccc2F)c2cccs2)cc1 (stereo not given) |  | inactive: -4.18%
CC1CCCCN1C(=O)N[C@@H](Cc1ccccc1)C(=O)O (stereo not given in full) |  | inactive: 11%
O=C(COC(=O)C1CCN(S(=O)(=O)c2ccccc2C(F)(F)F)CC1)NCc1ccc(F)cc1 | inconclusive: 39.8 µM [activator, single point] | 
O=C(Nc1nnc(-c2ccc(Cl)cc2)o1)c1cccc(N2C(=O)CCC2=O)c1 |  | inactive: 6.72%
CSc1ccccc1NC(=O)CCS(=O)(=O)c1nc(-c2ccc3c(c2)OCO3)cc(C(F)(F)F)n1 | inconclusive: 15.8 µM [inhibitor, partial curve, poor fit] | 
COc1cc(-c2nc(S(=O)(=O)c3ccc(C)cc3)c(N3CCOCC3)o2)cc(OC)c1OC | inconclusive: 39.8 µM [activator, single point] | 
Cc1cc(C(=O)Nc2sc3c(c2C#N)CCC(C)C3)cs1 (stereo not given) | inconclusive: 25.1 µM [inhibitor, single point] | 
COc1ccc(-c2nc3sc(CCNC(=O)c4ccc(Br)o4)c(C)n3n2)cc1 | inconclusive: 39.8 µM [activator, single point] | 
CCN(Cc1nc(-c2ccc(OC)c(OC)c2)no1)S(=O)(=O)c1ccc(OC)cc1 | inconclusive: 39.8 µM [activator, single point] | 
COc1ccc(C(c2sc3ncnn3c2O)N2CCN(c3ccccc3F)CC2)cc1OC (stereo not given) | inconclusive: 39.8 µM [activator, single point] | 
O=C(Cn1ncc2c3ccccc3n(Cc3cccc(Cl)c3)c2c1=O)N1CCC2(CC1)OCCO2 | inconclusive: 25.1 µM [activator, partial curve] | 
COc1ccccc1N1CCN(C(=O)CN2C(=O)COc3ccc(S(=O)(=O)N4CCOCC4)cc32)CC1 | inconclusive: 39.8 µM [activator, single point] | 
COc1cc(NC(=O)C2=C(N3CCOCC3)/C(=C\c3ccc(N(C)C)cc3)CCC2)cc(OC)c1OC | inconclusive: 31.6 µM [activator, single point] | 
Cc1cc(C)c2cc(C)c3nnc(SCC(=O)NCc4ccc5c(c4)OCO5)n3c2c1 | inconclusive: 31.6 µM [activator, single point] | 
Nc1c2c(nc3ccc(Br)cc13)N(Cc1ccccc1)CC2 | inconclusive: 31.6 µM [inhibitor, single point] | 
COc1cc2nc(-c3ccc(Br)o3)oc(=O)c2cc1OC | inconclusive: 15.8 µM [activator, partial curve] | 
Cc1c(C(=O)NCCN(C)C)oc2c1-c1nn(Cc3cccc(Cl)c3)cc1CC2 |  | inactive: 5.18%
C/C(=N\S(=O)(=O)c1ccc(C)cc1)N1CCN(S(=O)(=O)c2ccccc2)C1C(C)C (stereo not given) | inconclusive: 31.6 µM [activator, single point] | 
CCn1cc(/C=C(\NC(=O)c2cc(OC)c(OC)c(OC)c2)C(=O)NCCCn2ccnc2)c2ccccc21 |  | inactive: 0.726%
N#Cc1c(-c2ccccc2)cc(-c2ccccc2)nc1SCC(O)CS(=O)(=O)Cc1ccc(Cl)cc1 (stereo not given) | active: 7.94 µM | 
CC(NC(=O)CSc1nc2c(c(C(F)(F)F)n1)CCc1ccccc1-2)c1ccccc1 (stereo not given) |  | inactive: -7.17%

Compound | Potency | max response, negative = inhibition
Cc1ccccc1-c1noc(-c2ccccc2OCC(=O)Nc2cccc([N+](=O)[O-])c2)n1 |  | inactive: -3.23%
CCN(c1ccccc1)S(=O)(=O)c1ccc(Cl)c(NC(=O)COC(=O)c2cccc(OC)c2O)c1 | inconclusive: 31.6 µM [inhibitor, single point] | 
Cc1cccc(CNc2nc(-c3ccc4c(c3)OCO4)nc3ccccc23)c1 |  | inactive: -15%
COc1ccc(CN2CCc3c(c(=O)n4ncc(C(=O)N5CCN(c6ccccc6OC)CC5)c4n3C)C2)cc1 | inconclusive: 25.1 µM [activator, single point] | 
O=C(CN1C(=O)CCC1=O)Nc1nc(-c2ccc(Oc3ccccc3)cc2)cs1 | inconclusive: 39.8 µM [activator, single point] | 
Cc1ccc(N(CC(=O)NCCc2ccc(Cl)cc2)S(=O)(=O)c2c(C)noc2C)cc1 | inconclusive: 10 µM [activator, partial curve] | 
Cc1ccc(C(c2sc3nc(-c4ccco4)nn3c2O)N2CCCC2)cc1 (stereo not given) |  | inactive: 8.63%
COc1cc(SC)ccc1C(=O)Nc1ccc(S(=O)(=O)Nc2nccc(C)n2)cc1 |  | inactive: 0.9%
COc1ccc(-c2cc(-c3ccccc3)c(C#N)c(SCC(O)CS(=O)(=O)Cc3ccc(Cl)cc3)n2)cc1 (stereo not given) | inconclusive: 1 µM [inhibitor, partial curve] | 
CC(=O)Nc1nonc1-c1nnc(SCC(=O)Nc2ccc(C)cc2)n1-c1ccccc1 | inconclusive: 31.6 µM [activator, single point] | 
COc1cc(/C=C(/C#N)C(=O)NCCc2c[nH]c3ccccc23)ccc1OCc1ccccc1F | active: 7.94 µM | 
COC(=O)c1ccccc1NC(=O)c1cc(-c2ccccc2O)no1 | inconclusive: 39.8 µM [activator, single point] | 
O=C(CSc1nc2c(sc3ccccc32)c(=O)n1Cc1ccccc1)NCC1CCCO1 (stereo not given) | inconclusive: 39.8 µM [inhibitor, single point] | 
C=CCn1c(O)c(N=NC(=S)Nc2ccc(OC)c(Cl)c2)c2ccccc21 | active: 10 µM | 
Cc1cc(C)n(-c2nc(Nc3ccccc3C(F)(F)F)nc(-n3nc(C)cc3C)n2)n1 | inconclusive: 25.1 µM [activator, single point] | 
COc1ccccc1C(=O)Nc1ccccc1OCc1cc(=O)n2c(C)csc2n1 |  | inactive: 1.89%
O=C1c2ccccc2NC(c2ccc(Cl)cc2Cl)N1Cc1ccccc1 (stereo not given) | inconclusive: 31.6 µM [inhibitor, single point] | 
O=C(OCCN1CCN(c2ncc(C(F)(F)F)cc2Cl)CC1)c1ccc(Cl)cc1 | inconclusive: 31.6 µM [activator, single point] | 
Cc1cc(Nc2ccccc2)n(CCOC(=O)COc2ccccc2)n1 | inconclusive: 31.6 µM [activator, partial curve] | 
O=C(c1ccc(Cl)cc1)c1cnc(Nc2ccccc2)s1 | active: 15.8 µM | 
CCOC(=O)c1sc(NC(=O)C(OC(C)=O)c2ccccc2)nc1C (stereo not given) |  | inactive: -1.72%
COc1ccc(CNC(=O)c2ccc(-c3nc(CSc4ccccc4)c(C)o3)cc2)cc1OC | inconclusive: 31.6 µM [activator, single point] | 

Compound | Potency | max response, negative = inhibition
COc1ccc(CNC(=O)CSCc2nc(-c3ccccc3C)oc2C)cc1 |  | inactive: 2.6%
COc1ccc(-c2ccc3c(N)c(C(=O)c4ccc(OC)c(OC)c4)sc3n2)cc1 | inconclusive: 6.31 µM [activator, single point] | 
COC(=O)c1c(-c2ccccc2)csc1NC(=O)c1c(-c2ccccc2)noc1C | active: 20 µM | 
CN(CCC#N)C(=O)CSc1ncnc2sc(-c3ccccc3)cc12 | inconclusive: 31.6 µM [activator, single point] | 
CCC(C)NC(=O)CCCN1C(=O)CCn2nc(-c3cccn3C)cc21 (stereo not given) |  | inactive: -2.65%
CCc1ccc(-n2c(=O)c3c4c(sc3n(CC(=O)c3ccc(F)cc3)c2=O)CCC4)cc1 |  | inactive: -10.7%
Cc1ccc(SCc2ccc(C(=O)Nc3cc([N+](=O)[O-])ccc3C)cc2)cc1 |  | inactive: -6.67%
Cc1ccccc1Cn1nnc2c(=O)[nH]c(C3CCN(C(=O)c4ccc(F)cc4)CC3)nc21 | inconclusive: 39.8 µM [activator, single point] | 
O=C(NC1CCCC1)C(c1ccsc1)N(CCc1ccccc1)C(=O)Cc1cccs1 (stereo not given) | inconclusive: 39.8 µM [inhibitor, single point] | 
Cc1ccccc1CNC(=O)c1ccc2c(c1)c(C)c(C)n2C | inconclusive: 39.8 µM [inhibitor, single point] | 
CN(C)C(=O)CSc1nnc(-c2cc(-c3cccs3)nc3ccccc23)o1 | inconclusive: 31.6 µM [activator, partial curve] | 
CCCCC(CC)COCC1CO1 (stereo not given) |  | inactive: -2.61%
CN(C)c1ccc(CNC(=O)c2ccc(Cn3c(SCc4ccccc4)nc4cccnc43)cc2)cc1 | inconclusive: 39.8 µM [inhibitor, single point] | 
Cn1cc(C(=O)c2ccc(Cl)cc2Cl)cc1C(=O)N/N=C(\N)COc1cccc(C(F)(F)F)c1 | inconclusive: 39.8 µM [inhibitor, single point] | 
Cc1cc(C)cc(NC(=O)Cn2c(-c3cncs3)nc3ccccc32)c1 | inconclusive: 31.6 µM [activator, single point] | 
C=CCn1c(SCc2ccc(Cl)c(Cl)c2)nnc1C(CO)NC(=O)c1ccc(OC)cc1 (stereo not given) | inconclusive: 31.6 µM [activator, single point] | 
CCOC(=O)c1ccc(NC(=O)c2cnc3c(-c4ccc(F)cc4)c(C)nn3c2C)cc1 | inconclusive: 31.6 µM [inhibitor, single point] | 
CCS(=O)(=O)N1CCCC(C(=O)NCCOC)C1 (stereo not given) |  | inactive: -11.6%
Cc1ccc(NC(=O)CSc2nnc(-c3ccc([N+](=O)[O-])cc3)o2)c(C)c1 |  | inactive: 12.5%
O=C(c1cc(C(F)(F)F)cc(C(F)(F)F)c1)N1CCC2(CC1)CCN(c1ccncc1)CC2 |  | inactive: -4.18%
COC(=O)Cn1c(=O)c2cccn2c2ccc(F)cc21 |  | inactive: 6.43%

— PubChem BioAssay AID1476 (National Center for Advancing Translational Sciences (NCATS), 2009)
